According to patent US20250282802A1, “PHOSPHONATE PRODUCTS AND METHODS” (priority 2020, published 2025):

Tests used:
[1] = test system: mustard seedlings (Brassica sp.); settings: for root length of seedlings relative to water-treated controls / total dry weight of seedlings relative to water-treated controls: mustard seedlings, seven days growth
[2] = test system: Arabidopsis thaliana Col-0 seedlings; settings: A. thaliana Col-0 seedlings, seven days growth
[3] = seedlings, seven days, dose-dependent

Compound	root length of seedlings relative to water-treated controls [1]	total dry weight of seedlings relative to water-treated controls [1]	root length of seedlings relative to water-treated controls [2]	total dry weight of seedlings relative to water-treated controls [2]	potency versus glyphosate in the dry weight assays ([1]; seedlings, seven days)	potency versus phosphinothricin in the root length assay ([1]; seedlings, seven days)	concentrations with significant activity in the dry weight assay [1, 3]	concentrations with significant activity in the root length assay [1, 3] [µM]
O=C(O)CNCP(=O)(O)O [glyphosate, reference compound]	substantial reduction	substantial reduction	substantial reduction	substantial reduction				
O=C(O)/C=C(\C(=O)O)C(O)P(=O)(O)O (stereo not shown) [pantaphos, 2-(hydroxy(phosphono)methyl)maleate]	substantial reduction	substantial reduction	substantial reduction	substantial reduction	significantly more potent	significantly more potent	above 31.3 μM	≥ 1.95
CP(=O)(O)CC[C@H](N)C(=O)O [phosphinothricin, reference compound]	substantial reduction	substantial reduction	substantial reduction	substantial reduction				
